B1: MCSP-F9 HLP x G4H HLP (bispecific antibody)
chain: EVQLQESGPGLVKPSETLSLTCVVSGGSISSSNWWSWVRQPPGKGLEWLGTIYYNGNTYYNPSLKSRVTISVDTSKNQFSLRLSSVTAADTAVYYCAKSWVSWFASWGQGTLVTVSSGGGGSGGGGSGGGGSELVMTQSPDSLAVSLGERATINCKSSQSVLSSSNNKNYLNWYQQKPGQPPKLLIYWASTRESGVPDRFSGSGSGTDFTLTISSLQAEDVAVYYCQQHYSVPFTFGPGTKVDIKSGGGGSEVQLLESGGGLVQPGGSLKLSCAASGFTFNRYAMNWVRQAPGKGLEWVARIRSKYNNYATYYADSVKGRFTISRDDSKNTAYLQMNNLKTEDTAVYYCVRHGNFGNSYLSYFAYWGQGTLVTVSSGGGGSGGGGSGGGGSELVVTQEPSLTVSPGGTVTLT[gap - about 80 residues]FGGGTKLTVL
notes: plus C-terminal His6 tag
B2: MCSP-G4 HLP x E1L HLP (bispecific antibody)
chain: QVQLVQSGAEVKRPGASMKVSCKASGYTFTNYYIHWVRQAPGQGLEWMGWINPNSGATNYAQKFQGRVTMTRDTSTSTVYMELSSLRSEDTAVYYCAKSWVSWFASWGQGTLVTVSSGGGGSGGGGSGGGGSELVMTQSPDSLAVSLGERATINCKSSQSVLNSSNNRNYLAWYQQKPGQPPKLLIYWASTRESGVPDRFSGSGSGTDFTLTISGLQAEDVAVYYCQQHYSTPFTFGPGTKVDIKSGGGGSEVQLLESGGGLVQPGGSLKLSCAASGFTFNKYAMNWVRQAPGKGLEWVARIRSKYNNYATYYADSVKSRFTISRDDSKNTAYLQMNNLKTEDTAVYYCVRHGNFGNSYTSYYAYWGQGTLVTVSSGGGGSGGGGSGGGGSELVVTQEPSLTVSPGGTVTLT[gap - about 80 residues]FGGGTKLTVL
notes: plus C-terminal His6 tag
B3: MCSP-G4 HLP x F6A HLP (bispecific antibody)
chain: QVQLVQSGAEVKRPGASMKVSCKASGYTFTNYYIHWVRQAPGQGLEWMGWINPNSGATNYAQKFQGRVTMTRDTSTSTVYMELSSLRSEDTAVYYCAKSWVSWFASWGQGTLVTVSSGGGGSGGGGSGGGGSELVMTQSPDSLAVSLGERATINCKSSQSVLNSSNNRNYLAWYQQKPGQPPKLLIYWASTRESGVPDRFSGSGSGTDFTLTISGLQAEDVAVYYCQQHYSTPFTFGPGTKVDIKSGGGGSEVQLLESGGGLVQPGGSLKLSCAASGFTFNIYAMNWVRQAPGKGLEWVARIRSKYNNYATYYADSVKSRFTISRDDSKNTAYLQMNNLKTEDTAVYYCVRHGNFGNSYVSFFAYWGQGTLVTVSSGGGGSGGGGSGGGGSELVVTQEPSLTVSPGGTVTLT[gap - about 80 residues]FGGGTKLTVL
notes: plus C-terminal His6 tag
B4: MCSP-G4 HLP x G4H HLP (bispecific antibody)
chain: QVQLVQSGAEVKRPGASMKVSCKASGYTFTNYYIHWVRQAPGQGLEWMGWINPNSGATNYAQKFQGRVTMTRDTSTSTVYMELSSLRSEDTAVYYCAKSWVSWFASWGQGTLVTVSSGGGGSGGGGSGGGGSELVMTQSPDSLAVSLGERATINCKSSQSVLNSSNNRNYLAWYQQKPGQPPKLLIYWASTRESGVPDRFSGSGSGTDFTLTISGLQAEDVAVYYCQQHYSTPFTFGPGTKVDIKSGGGGSEVQLLESGGGLVQPGGSLKLSCAASGFTFNRYAMNWVRQAPGKGLEWVARIRSKYNNYATYYADSVKGRFTISRDDSKNTAYLQMNNLKTEDTAVYYCVRHGNFGNSYLSYFAYWGQGTLVTVSSGGGGSGGGGSGGGGSELVVTQEPSLTVSPGGTVTLT[gap - about 80 residues]FGGGTKLTVL
notes: plus C-terminal His6 tag

biological target: T1, human CD3 (epsilon) on human T cells (HPB-ALL cell line, human PBMC) (human, UniProt P07766); test: FACS, HPB-ALL
T1 construct: whole, on cells; also called native CD3
T1 sequence (P07766 23-207): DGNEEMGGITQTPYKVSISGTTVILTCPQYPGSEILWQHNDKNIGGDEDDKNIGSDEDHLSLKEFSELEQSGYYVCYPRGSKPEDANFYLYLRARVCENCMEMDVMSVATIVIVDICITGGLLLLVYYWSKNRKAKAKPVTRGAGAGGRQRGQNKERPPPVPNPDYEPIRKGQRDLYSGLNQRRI

Binding result, binds:
B1
B2
B3
B4
